The supplement of paper PMC11417369
This is one part of the list.

tested on: PfSIP2 AP2 domain 1 (GST-tagged); assay: gcPBM binding intensity (ln(normalized median fluorescence intensity)); higher = stronger DNA binding
In short: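 After 1 h on an Agilent 4 × 180k array of primer-extended double-stranded 36-bp intergenic genomic probes and negative controls, bound GST-tagged P. falciparum DNA-binding domains were detected with Alexa488 anti-GST antibody and scanned at 488 nm. The domains had been expressed in E. coli, and binding took place in 1× PBS with 1% milk, 0.2 mg/ml BSA, 0.5% salmon testes DNA and 0.03% Triton X-100. Binding intensity is the highest Masliner-normalised natural-log median intensity across replicate spots of either probe orientation.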

Row | Sequence | gcPBM binding intensity (ln)
1 | CATATTTACATTAAGTGTACTTATGAATATATATAC [XGTACX_site7962] | 7.03
2 | AAAATACATATATATATATATAATATTGTTGTTAAA [GTGCAC_negctrl_site519] | 7.19
3 | ATATTTTTTTTCATTTGTACACATAAAATTATATAG [XGTACX_site8260] | 7.45
4 | TTTTTATTTTTAGTAGTGCATTAATCATATGGTCAT [GTGCAC_site9879] | 8.78
5 | TAAATAAATCCACATACACACACGACGCTAGTATAT [CACACA_site1060] | 6.73
6 | AATATTTTATTTTTTCTCATTAAAAATTTTTTTTTT [CACACA_negctrl_site364] | 6.84
7 | GATAGATAATATTTTAGTACATAAACAATTAAATAT [XGTACX_site4125] | 6.95
8 | ATTATTCGTTTTAAATGTACTCATATAAACGATAAA [XGTACX_site7866] | 7.3
9 | CAAAAGAAGGTAAACACACACACACCCATACAAAAA [CACACA_site3765] | 7
10 | GAGCGTAATCTATTTGCACACTTATTTGTTCTTAAA [CACACA_site673] | 7.13
11 | GTGTATAATATAGGATGTACAATAAAACACCGATTG [XGTACX_site7429] | 7.08
12 | TTGTTTATCAACAGCACACACAACAACAACAACAAC [CACACA_site458] | 7.25
13 | ATAAAAACATAAACAAATCAAAAAAAAAAAAAAAAA [CACACA_negctrl_site13] | 6.85
14 | AAATAATGAAACAAAGTGCATAAAAATATACATATA [GTGCAC_site9467] | 7.75
15 | CATTAAAATATGAGATGTACACAATATCTATTATAT [XGTACX_site4979] | 6.98
16 | ATGGATTATACGTGCACACATATATACCAATAAATA [CACACA_site4524] | 10.5
17 | ATTTAAATATCTTCTTTTTTTTTTTTTTTTGAAATT [CACACA_negctrl_site1074] | 6.6
18 | GTGTACAGACACAAAATATATACATATATATATATA [CACACA_negctrl_site1796] | 9.01
19 | TGTTATATGTTCAAATGTACAAATCATATACATGTT [XGTACX_site3192] | 6.86

Row | Sequence | gcPBM binding intensity (ln)
20 | AATATATAAACCGAACGTACATATTTTTTATACACC [XGTACX_site2121] | 7.08
21 | ATTATTTTCTCATAGAGTACAAATGTTGTTGTTGTC [XGTACX_site1062] | 7.16
22 | TATTTTCATAATAAAAAAAAATAATTTAAAAAATAT [CACACA_negctrl_site748] | 6.75
23 | AATGGCAAAATAGGCACACACACATATACATATATA [CACACA_site1058] | 7.01
24 | TGTGCACATAATTAGTGTACATTTTTTATTTAGACA [XGTACX_site317] | 10.9
25 | AATTATATTTGAAATACACACATAAAAATCATATAG [CACACA_site3468] | 6.91
26 | CTTATTGATTTAAAAAGTACATATATGTATATACAC [XGTACX_site4072] | 7.05
27 | AAAAAAAAAAAAAATACACACATATAAATATAAATA [CACACA_site6189] | 7.3
28 | AGATTTAAATATCATACACACTTTATATATAATACA [CACACA_site4688] | 6.9
29 | TTATATAGGTCATTCATAAATACAGTTTTTAAAAAA [CACACA_negctrl_site1340] | 7.06
30 | ATTTATTTCACAAAAACATGCAGTTTGAAATTGCCA [TGCATGCA_site910] | 6.74
31 | AATTCATTATATATACGTACATATTTCTGTATAAAA [XGTACX_site6371] | 6.91
32 | AAAAAAAAAAGACACACACACACATAAATATAAATA [CACACA_site6215] | 7.18
33 | GCATAAATTATCATAACATAAATATAAAAATATAAT [GTGCAC_negctrl_site55] | 7.03
34 | GATTATTTTATAAGTACACACATTTATATATAATAA [CACACA_site2573] | 7.34
35 | TTCATGCTTATATGTGCACACACAAAAGAAAAGAAA [CACACA_site1656] | 9.6
36 | AAATAATAAATTATAACACACATATATATATATATA [CACACA_site4045] | 9.27
37 | ATAATACAATTTATAACACACACACTATAATACATA [CACACA_site8338] | 7.1
38 | GGAAAGACAGTTCACAGTACCCAGTAACTCTACGGA [XGTACX_site2009] | 6.51

Row | Sequence | gcPBM binding intensity (ln)
39 | CAAAAATAATAGAATACATGCAAAAATAAATGTATA [TGCATGCA_site196] | 6.77
40 | AAAAATAAAGGGTGTGCACACAAAAATATATATATA [CACACA_site1727] | 9.1
41 | ATAATATATTTAATCATACACACATTTATGTACCTA [CACACA_site1719] | 6.99
42 | TTTTTTTTTAAAACATAATAAAAAATAAAACAACCT [GTGCAC_negctrl_site92] | 7.42
43 | ATATATATATATATATGTACATATATATTGTTGATC [XGTACX_site8893] | 9.36
44 | ACATATTATTCAAGTGCACACTTTATATTTATGATT [CACACA_site3295] | 9.49
45 | ATTTAATTCGTACATACACACGCACATATATATATA [CACACA_site8415] | 8.85
46 | TACAATAATGATTGTTGTACATTATTGATATTTAAA [XGTACX_site2940] | 6.78
47 | TTTAATTTTTAATCAGTGCAATATTATATAATATAT | 7.85
48 | AAAAAAAAACAGAAAACACACAAATTATCTTAGAAT [CACACA_site309] | 6.6
49 | TATATGAAATATTATGCACACAATATATAATATGAT [CACACA_site936] | 7.33
50 | AATAATTCATCATATGCACACACAATACCAAAATGT [CACACA_site7945] | 8.05
51 | TCATTTTAATTAAAAGTGCAAAAAATAATATAACTA [GTGCAC_site9968] | 8.31
52 | ATTAATTCGTTTTGTACACACATAATGAATAATTTA [CACACA_site2235] | 7.06
53 | ATATATATATATAATACACACTTATGAAATGTCTAA [CACACA_site5077] | 9.27
54 | TTAATACATACATTCACACACACTAATTGTATATTT [CACACA_site9362] | 7.05
55 | TTCTTTTTTCGACACACACACACAAGAAGATATATA [CACACA_site7456] | 7.63
56 | ATACGAATAAATTTCGCATGCAGCATATATATCAAT [TGCATGCA_site612] | 6.88
